Data published in paper PMC4336329 (PLoS ONE, 2015).
Among all 310,000 compounds or so, about 14,000 (4.5%) showed an effect of 50% or more. Effects have a minus sign here. The list shows a part of the results.

Target: human ether-à-go-go-related gene (hERG) potassium channel (human, UniProt Q12809)
Assay: primary screen, population patch clamp on CHO cells stably expressing hERG
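Note: peak tail current of the secondary pulse compared with the same well before compound.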

human ether-à-go-go-related gene (hERG) potassium channel, sequence (Q12809 whole entry, looked up): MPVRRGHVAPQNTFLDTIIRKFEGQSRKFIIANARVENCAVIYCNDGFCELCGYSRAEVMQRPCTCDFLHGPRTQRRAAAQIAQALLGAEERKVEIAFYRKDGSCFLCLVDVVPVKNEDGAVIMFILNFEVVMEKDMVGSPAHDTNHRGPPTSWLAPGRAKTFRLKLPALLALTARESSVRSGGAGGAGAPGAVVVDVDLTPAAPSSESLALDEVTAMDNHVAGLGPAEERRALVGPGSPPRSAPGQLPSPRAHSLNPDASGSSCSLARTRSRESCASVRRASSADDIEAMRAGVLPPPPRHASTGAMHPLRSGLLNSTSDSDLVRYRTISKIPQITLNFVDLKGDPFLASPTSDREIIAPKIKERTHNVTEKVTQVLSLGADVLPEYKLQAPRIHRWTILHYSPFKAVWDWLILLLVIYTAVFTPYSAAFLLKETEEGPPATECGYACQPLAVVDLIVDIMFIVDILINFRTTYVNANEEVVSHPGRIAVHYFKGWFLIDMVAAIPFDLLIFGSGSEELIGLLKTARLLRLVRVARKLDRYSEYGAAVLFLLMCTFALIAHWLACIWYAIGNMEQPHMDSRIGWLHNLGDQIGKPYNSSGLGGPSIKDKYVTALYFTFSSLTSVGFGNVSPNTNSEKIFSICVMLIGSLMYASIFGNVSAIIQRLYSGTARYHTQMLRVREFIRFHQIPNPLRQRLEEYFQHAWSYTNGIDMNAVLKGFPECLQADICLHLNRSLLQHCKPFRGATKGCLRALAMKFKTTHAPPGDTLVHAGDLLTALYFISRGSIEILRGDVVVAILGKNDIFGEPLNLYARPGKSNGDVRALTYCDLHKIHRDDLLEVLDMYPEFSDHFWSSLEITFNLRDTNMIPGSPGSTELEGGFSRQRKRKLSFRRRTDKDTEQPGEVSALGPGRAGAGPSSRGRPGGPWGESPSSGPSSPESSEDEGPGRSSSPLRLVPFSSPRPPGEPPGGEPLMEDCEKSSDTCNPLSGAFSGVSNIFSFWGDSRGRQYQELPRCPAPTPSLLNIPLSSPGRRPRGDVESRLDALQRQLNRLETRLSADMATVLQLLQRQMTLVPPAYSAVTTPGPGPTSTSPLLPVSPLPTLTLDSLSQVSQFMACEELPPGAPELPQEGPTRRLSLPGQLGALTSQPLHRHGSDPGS

SMILES	hERG current change (%, negative = inhibition) at 10uM [%]
COc1cc(C(=O)O/N=C(\N)c2cccc([N+](=O)[O-])c2)cc(OC)c1OC	10.3
N#C/C(C(=O)NCc1ccccc1)=C1/SC(Cc2ccc(Cl)cc2)C(=O)N1c1ccccc1 (stereo not drawn)	14.4
Nn1c(SCC(=O)Nc2ccccc2F)nnc1C1CCCCC1	8.64
COc1cc(/C=C/C(=O)NC(C)CCc2ccccc2)cc(OC)c1OC (stereo not drawn)	-1.32
Cc1ccccc1/C=C/C(=O)N1CCOCC1	8.37
O=C(NCCc1cccs1)c1cccs1	-7.09
Cc1ccc(C(=O)NCc2ccccc2F)cc1S(=O)(=O)N1CCCC1	4.12
CCOC(=O)C1CCN(C(=O)COC(=O)Cc2ccc(Cl)cc2)CC1	-22.7
CCOc1ccc(OC(=O)C(CCS(C)(=O)=O)N2C(=O)c3ccccc3C2=O)cc1 (stereo not drawn)	-11.9
Cl.NCCCC[C@@H](C(=O)N1CCNCC1)n1cc(CCC(=O)O)nn1	37.1
CN(Cc1c(C(=O)N/N=C/c2ccccc2)nnn1-c1nonc1N)c1ccccc1	9.3
CCc1ccccc1NC(=O)CCNC(=O)Cn1ccc2ccccc2c1=O	21.2
COc1ccc(C/C(N)=N/OC(C)=O)cc1OC	7.62
O=C(O)CSc1nnc(COc2cccc3ccccc23)o1	19.2
COc1ccc(CCNS(=O)(=O)c2cnc(Cl)c(Br)c2)cc1OC	4.79
CC(=O)NCCCC(=O)NN1C(=S)N(Cc2ccccc2)C(=O)C1CC(=O)Nc1cccc(C)c1 (stereo not drawn)	8.8
O=C1/C(=C/c2ccco2)SC(=S)N1C1CCS(=O)(=O)C1 (stereo not drawn)	6.47
CCOc1cc(/C=N/NC(=O)c2nn(C)cc2Br)ccc1OCc1ccccc1Cl	-14.7
COc1cc(OC)c(OC)cc1/C=C1\Oc2cc(OS(C)(=O)=O)ccc2C1=O	2.35

SMILES	hERG current change (%, negative = inhibition) at 10uM [%]
CCCCN1C(N)=NC[C@@H]1CC1CCCCC1	-11.5
OCC1(CCOc2ccccc2)CCN(CCCn2cccn2)CC1	-73.1
O=C(c1ccc2c(c1)OCCO2)C1CCN(C(=O)c2ccc(F)cc2)CC1	-13
CC1CN(C)C(C)c2c1oc1ccc([N+](=O)[O-])cc21 (stereo not drawn)	-37.9
CCOc1ncccc1C(=O)NCc1ccccc1Cl	2.81
Cc1cc(=O)n2nc(N3CCC(C(=O)NCc4cccc(Cl)c4)CC3)sc2n1	-43.7
Cc1ccc(-c2nc(S(=O)(=O)c3ccc(C)cc3)c(N3CCOCC3)o2)cc1	-32.2
CC(C)CCNC(=O)CN1C(=O)NC(c2ccccc2)(c2ccccc2)C1=O	-3.24
Cc1c(C#N)c(N)nc2c3c(sc12)NC(=O)CC3c1ccc(F)cc1 (stereo not drawn)	10.8
COc1cc2c(cc1OC)C(c1cccc(Cl)c1)CC(=O)N2 (stereo not drawn)	0.82
CCCCCCOc1ccc(/C(N)=N/O)cc1	5.59
N#C/C(=C/c1ccc(Sc2nc3ccccc3[nH]2)o1)c1cccc(F)c1	-8.39
CC(=O)N1c2ccccc2C(=O)C1N1CCCCC1 (stereo not drawn)	-4.1
CCCCOc1ccc(C(=O)N2CCNC(=O)C2)cc1	17.6
O=C(O)/C=C/C(=O)Nc1ccc(-n2ccc(C(F)(F)F)n2)cc1	7.01
O=C(CCNc1ccccc1)c1ccc2c(c1)OCO2	-2.14
CCOC(=O)C1CCN(C(=O)c2cc3c(=O)n4ccccc4nc3s2)CC1	-6.6
CCCCC1=CC2=C(c3ccco3)C(=O)C(C)(OC(=O)c3ccc(OC)cc3)C(=O)C2=CN1Cc1ccc2c(c1)OCO2 (stereo not drawn)	-4.39
COc1ccc(C)cc1NC(=O)CNC(=O)Cn1ccc2ccccc2c1=O	-7.79

SMILES	hERG current change (%, negative = inhibition) at 10uM [%]
O=C(CSc1nnc(CNc2ccc(F)cc2)n1Cc1ccco1)N1CCCC1	-35.7
COc1ccccc1N1CCN(C(=O)C2CCN(S(=O)(=O)c3ccc(C)cc3)CC2)CC1	-19.9
CNC(=O)c1c(NC(=O)c2ccco2)sc2c1CCCC2	-0.377
Cc1ccc(C)c(C(=O)CN2Cc3ccccc3C2=O)c1	7.02
COc1ccc(S(=O)(=O)N2CCCCC2)cc1NC(=O)CCOc1cc(C)ccc1C	8.59
Cc1cc(C)cc(NC(=S)NN)c1	1.09
Cc1cc[n+](-c2ccccc2)c2ccccc12.[Cl-]	76.5
O=C(NCc1cccnc1)NC1CCCCC1	5.25
O=C(CCCc1nc(-c2ccc(Cl)cc2)no1)NC1CCCC1	-1.19
COC(=O)CS(=O)(=O)c1nnc([C@H](Cc2ccccc2)NC(=O)OC(C)(C)C)o1	9.11
CCOc1ccc(S(=O)(=O)N2CCN(C(=O)c3ccncc3)CC2)cc1	4.67
O=C(CCl)NNc1cccc(Cl)n1	6.28
O=C(O)c1ccc(CNC(=O)c2ccc(S(=O)(=O)N3CCCCC3)cc2)cc1	-1.88
Cc1cc(C(=O)N2CCN(c3ccc(F)cc3)CC2)on1	-14.5
COc1ccc(C2CC(c3ccc(OC)cc3)n3nc(NS(C)(=O)=O)nc3N2)cc1 (stereo not drawn)	-10.6
Cc1ccc(CCNc2ccccc2)c[n+]1[O-]	2.22
CNc1c(NS(=O)(=O)c2ccc(Cl)s2)c(=O)oc2ccccc12	-4.04
Cc1ccc(Sc2ccncc2S(N)(=O)=O)cc1	-0.5
CCc1ccc([C@@H]2CC=C(C(=O)O)[C@H](c3cccc(Cl)c3)N2S(=O)(=O)c2ccc(C)cc2)cc1	15.2
